{"source": "PubChem BioAssay AID1347165", "about": "(National Center for Advancing Translational Sciences (NCATS), 2019)", "note": "The whole screen tested about 220,000 compounds, of which about 5,700 (2.6%) were called active. The inconclusive results got no clear call from the source; some entries with a clear call stand among them for comparison. Calls come from the whole dose curve; as a rule, active = well fitted inhibition curve with a large enough effect; inconclusive = small, poorly fitted or top-dose-only effect; inactive = no such curve, though single readings can be large or run the other way. A potency beside an inconclusive call is a rough fit, not a confirmed value. Potency is the fitted concentration of half-maximal effect; tags give direction and shape of the fitted curve."}
{"molecular_target": "Lysine-specific demethylase 5B (Homo sapiens) (UniProt Q9UGL1)", "sequence (Q9UGL1 whole entry, looked up)": "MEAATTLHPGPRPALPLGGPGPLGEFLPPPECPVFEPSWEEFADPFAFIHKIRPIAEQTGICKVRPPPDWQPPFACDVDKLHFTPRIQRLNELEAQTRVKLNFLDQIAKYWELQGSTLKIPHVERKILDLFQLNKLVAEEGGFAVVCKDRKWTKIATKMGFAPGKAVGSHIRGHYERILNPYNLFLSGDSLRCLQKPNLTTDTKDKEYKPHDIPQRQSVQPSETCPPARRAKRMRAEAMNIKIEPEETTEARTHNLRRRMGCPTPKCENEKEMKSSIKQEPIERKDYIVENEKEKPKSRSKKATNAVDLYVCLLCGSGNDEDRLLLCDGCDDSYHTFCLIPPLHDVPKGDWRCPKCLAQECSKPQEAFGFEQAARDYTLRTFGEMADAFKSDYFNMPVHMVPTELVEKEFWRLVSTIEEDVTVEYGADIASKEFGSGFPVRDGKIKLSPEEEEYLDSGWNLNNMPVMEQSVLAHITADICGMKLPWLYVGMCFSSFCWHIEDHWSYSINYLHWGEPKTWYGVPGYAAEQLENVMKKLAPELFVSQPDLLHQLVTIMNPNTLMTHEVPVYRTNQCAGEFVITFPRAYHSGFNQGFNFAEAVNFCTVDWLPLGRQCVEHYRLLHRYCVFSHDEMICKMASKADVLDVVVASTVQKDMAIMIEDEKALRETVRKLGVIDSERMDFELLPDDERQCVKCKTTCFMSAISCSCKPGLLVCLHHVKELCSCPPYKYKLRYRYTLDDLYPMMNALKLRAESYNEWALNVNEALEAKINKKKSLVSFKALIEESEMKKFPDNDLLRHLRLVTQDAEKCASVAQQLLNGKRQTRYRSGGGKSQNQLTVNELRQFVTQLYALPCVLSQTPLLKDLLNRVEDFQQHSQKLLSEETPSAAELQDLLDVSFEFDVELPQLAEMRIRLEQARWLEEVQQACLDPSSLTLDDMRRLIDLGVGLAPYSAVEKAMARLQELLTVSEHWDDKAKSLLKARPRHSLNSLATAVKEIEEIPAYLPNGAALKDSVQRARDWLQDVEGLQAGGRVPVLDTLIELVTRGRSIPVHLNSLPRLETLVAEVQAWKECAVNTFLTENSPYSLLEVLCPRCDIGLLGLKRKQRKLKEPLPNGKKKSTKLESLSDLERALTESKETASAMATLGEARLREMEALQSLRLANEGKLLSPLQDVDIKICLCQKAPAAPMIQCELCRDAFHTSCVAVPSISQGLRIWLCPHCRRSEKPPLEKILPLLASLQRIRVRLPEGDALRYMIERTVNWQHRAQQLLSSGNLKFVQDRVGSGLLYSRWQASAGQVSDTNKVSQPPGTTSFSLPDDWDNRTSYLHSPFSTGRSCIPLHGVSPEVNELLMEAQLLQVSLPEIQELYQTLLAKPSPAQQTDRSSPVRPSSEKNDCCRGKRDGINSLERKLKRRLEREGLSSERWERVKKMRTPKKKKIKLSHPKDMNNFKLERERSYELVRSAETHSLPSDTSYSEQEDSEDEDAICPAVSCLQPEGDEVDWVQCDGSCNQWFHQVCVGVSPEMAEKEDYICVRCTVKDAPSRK", "assay": "Primary screen for KDM5B Histone Demethylases FDH-coupled qHTS; note: nearly all actives have a fitted effect of over 70% in size; for activity change, negative = inhibition: 0% is about no effect", "settings": "FDH-coupled NADH fluorescence (FDH is formaldehyde dehydrogenase); activity change, negative = inhibition: at 57.7 µM (top of the series) unless noted", "in_short": "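Here, H3K4me3 peptide (12.5 µM in substrate mix) is demethylated by KDM5BΔAP, 200 nM final, after 10 min compound exposure. Formaldehyde product is coupled through FDH (0.25 U/mL in mix) to NADH fluorescence; 30-min ΔRFU feeds dose-response curves.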"}
{"smiles": "N#Cc1ccccc1NC(=O)CN1CCN(S(=O)(=O)c2cccs2)CC1", "Potency": "inconclusive: 39.8 µM [inhibitor, single point]"}
{"smiles": "O=S(=O)(c1ccc(-c2csc(-c3cccc(Cl)c3)n2)cc1)N1CCOCC1", "activity change, negative = inhibition": "inactive: -0.674%"}
{"smiles": "Cc1cc(C)c(S(=O)(=O)NCCc2sc(-c3cccc(F)c3)nc2C)c(C)c1", "Potency": "inconclusive: 25.1 µM [inhibitor, partial curve, poor fit]"}
{"smiles": "O=C(Cn1c(SCc2cccc(F)c2)nc2cccnc21)Nc1ccc(F)c(Cl)c1", "Potency": "inconclusive: 31.6 µM [inhibitor, partial curve, poor fit]"}
{"smiles": "CC(=O)c1ccc(NC(=O)CCc2c(C)nc3c(c(C)nn3-c3ccc(C)cc3)c2C)cc1", "Potency": "inconclusive: 1.12 µM [inhibitor, full curve, poor fit]"}
{"smiles": "Cc1cn2nc(C(=O)N3CCC(NC(=O)c4nccc5ccccc45)CC3)cc2c(=O)[nH]1", "Potency": "inconclusive: 28.2 µM [inhibitor, single point]"}
{"smiles": "CN(Cc1ccccc1)Cc1cc(C[C@@H]2CC[C@H](O)[C@@H](CNC3CCOCC3)O2)no1", "activity change, negative = inhibition": "inactive: 133% [at 86.2 µM]"}
{"smiles": "Cc1ccc(CN(Cc2ccco2)C(=O)COc2ccccc2C)cc1", "Potency": "inconclusive: 1.26 µM [inhibitor, partial curve, poor fit]"}
{"smiles": "CCCNc1ncc(CN2CCCC(c3ccc(C(=O)O)cc3)C2)cn1", "note": "(configuration not stated)", "Potency": "inconclusive: 28.2 µM [inhibitor, single point]"}
{"smiles": "O=C(NCCCN1CCOCC1)c1cccnc1N1CC2CC(C1)[C@H]1CCCC(=O)N1C2", "note": "(some centres not stated)", "Potency": "active: 28.2 µM"}
{"smiles": "CCOc1ccc(S(=O)(=O)N(CC)CC(=O)NCC2CCCO2)cc1Cl", "note": "(configuration not stated)", "activity change, negative = inhibition": "inactive: 21.5%"}
{"smiles": "CCCCCNC(=O)C(C#N)c1nc2ccccc2nc1OCC", "note": "(configuration not stated)", "Potency": "inconclusive: 25.1 µM [inhibitor, single point]"}
{"smiles": "Cc1cc(C(=O)N2c3ccccc3CC2c2nnc(C(C)C)o2)nn1C", "note": "(configuration not stated)", "Potency": "inconclusive: 25.1 µM [inhibitor, single point]"}
{"smiles": "CCOC(=O)c1ccc(NC(=O)CCc2c(C)nc3c(c(C)nn3-c3ccccc3)c2C)cc1", "Potency": "inconclusive: 1.41 µM [inhibitor, full curve, poor fit]"}
{"smiles": "COc1ccc(NC(=O)C(c2ccc(C)cc2)N(C)C(=O)/C=C\\c2ccc3c(c2)OCO3)cc1", "note": "(configuration not stated)", "Potency": "inconclusive: 25.1 µM [inhibitor, partial curve, poor fit]"}
{"smiles": "COc1ccc(-c2noc([C@@H]3Cc4nc[nH]c4CN3C(=O)Nc3ccc(C)cc3)n2)cc1", "Potency": "inconclusive: 31.6 µM [inhibitor, partial curve]"}
{"smiles": "COc1ccc(NC(=O)c2ccc3c(c2)N(C(=O)c2ccc(OC)cc2)CC3)cc1", "Potency": "inconclusive: 35.5 µM [inhibitor, single point]"}
{"smiles": "Cc1ccccc1NC(=O)N(C)[C@H]1C[C@H]2c3[nH]c4c(-c5ccccc5)cccc4c3CCN2C[C@H]1[C@H](C)O", "Potency": "inconclusive: 25.1 µM [inhibitor, partial curve, poor fit]"}
{"smiles": "Cc1ccc(OC(=O)C(C)Oc2ccc(Cl)cc2Cl)c(C)c1", "note": "(configuration not stated)", "activity change, negative = inhibition": "inactive: 13.5%"}
{"smiles": "CC(=O)N1Cc2ccccc2CC2(CCCN2CC2CCCC2)C1", "note": "(configuration not stated)", "Potency": "inconclusive: 89.1 µM [inhibitor, partial curve]"}
{"smiles": "Cc1ccc2oc(C(=O)NCCCOCC3CC3)cc(=O)c2c1", "activity change, negative = inhibition": "inactive: 0.77%"}
{"smiles": "C=C(C)CN1CCC(CC(N)=O)CC1", "activity change, negative = inhibition": "inactive: 19.3%"}
{"smiles": "COc1cccc(/C=C/c2nc3ccccc3o2)c1OC(C)C", "Potency": "inconclusive: 2 µM [inhibitor, full curve, poor fit]"}
{"smiles": "CCNC(=O)C(C)NC(=O)CCc1ncc(-c2ccc(CC(C)C)cc2)o1", "note": "(configuration not stated)", "activity change, negative = inhibition": "inactive: 16%"}
{"smiles": "CCc1ccc(OC(C)c2nc(-c3ccc(-n4cccc4)cc3)no2)cc1", "note": "(configuration not stated)", "Potency": "inconclusive: 20 µM [inhibitor, partial curve, poor fit]"}
{"smiles": "COc1ccc(NC(=O)Cc2nnc(SCC(=O)NC34CC5CC(CC(C5)C3)C4)n2C)cc1", "activity change, negative = inhibition": "inactive: 6.93%"}
{"smiles": "CC1(C)Cc2nc3sc4c(SCC(=O)O)ncnc4c3cc2CO1", "Potency": "inconclusive: 31.6 µM [inhibitor, single point]"}
{"smiles": "COc1cccc(NC(=O)CSc2nc3ccc(NC(=O)c4cccs4)cc3s2)c1", "Potency": "inconclusive: 39.8 µM [inhibitor, single point]"}
{"smiles": "O=C(NCCC1=CCCCC1)C1(CCO)CCN(c2ncccn2)C1", "note": "(configuration not stated)", "Potency": "inconclusive: 31.6 µM [inhibitor, partial curve, poor fit]"}
{"smiles": "Cn1cc(CN[C@H]2C[C@H]3C(=O)NC[C@@H](CCC(=O)N4CCCCC4)N3C2)c2ccccc21", "Potency": "inconclusive: 25.1 µM [inhibitor, partial curve]"}
{"smiles": "CC1=C[C@@H](CN2CCC(CO)CC2)[C@H](C(C)C)C[C@H]1Cc1nnc(-c2ccc([N+](=O)[O-])cc2)o1", "Potency": "inconclusive: 25.1 µM [inhibitor, single point]"}
{"smiles": "CCN1c2cc(C(=O)Nc3ccc(Br)c(C)c3)ccc2C(=O)N2CCCCC21", "note": "(configuration not stated)", "Potency": "inconclusive: 25.1 µM [inhibitor, partial curve, poor fit]"}
{"smiles": "CN1CCc2c(c(N3CCOCC3)nc3sc(C(=O)Nc4ccccc4)c(N)c23)C1", "Potency": "inconclusive: 14.1 µM [inhibitor, partial curve, poor fit]"}
{"smiles": "CN(C)C(=O)CC1=C2CCCCC2N(C)C1=O", "note": "(configuration not stated)", "Potency": "inconclusive: 8.91 µM [inhibitor, single point]"}
{"smiles": "O=C(c1cccs1)N1CC[C@H](c2nnc(-c3ccc(Cl)cc3)o2)C1", "Potency": "inconclusive: 35.5 µM [inhibitor, partial curve, poor fit]"}
{"smiles": "COc1ccc(CN2CCC3(C2)C(=O)N(c2ccccc2)c2ccccc23)cc1", "note": "(configuration not stated)", "Potency": "inconclusive: 63.1 µM [inhibitor, partial curve, poor fit]"}
{"smiles": "Cc1cccc(C(=O)Nc2sc3c(c2C(=O)N2CCCCC2)CCC(C)C3)c1", "note": "(configuration not stated)", "Potency": "inconclusive: 39.8 µM [inhibitor, single point]"}
{"smiles": "Cc1cc(C)cc(NC(=O)c2ncoc2-c2cccs2)c1", "Potency": "inconclusive: 22.4 µM [inhibitor, single point]"}
{"smiles": "Cc1cc(=O)n(CC(=O)Nc2ccc(F)cc2)c(N2CCc3ccccc3C2)n1", "Potency": "inconclusive: 11.2 µM [inhibitor, partial curve, poor fit]"}
{"smiles": "CCn1c2c(c(=O)n1-c1ccccc1)CCN(Cc1cncc(OC)c1)C2", "Potency": "inconclusive: 31.6 µM [inhibitor, single point]"}
{"smiles": "O=C(c1ccc(C(F)(F)F)cc1)N1CCc2nc(-c3ccc(Cl)cc3)nc(-c3ccccc3)c2C1", "activity change, negative = inhibition": "inactive: -9.15%"}
{"smiles": "Nc1nccnc1C(=O)NCCc1cccnc1", "Potency": "inconclusive: 25.1 µM [inhibitor, partial curve, poor fit]"}
{"smiles": "CC(=O)N1Cc2ccccc2CC2(CCCN2CC2CCOCC2)C1", "note": "(configuration not stated)", "Potency": "inconclusive: 112 µM [inhibitor, partial curve, poor fit]"}
{"smiles": "Cc1[nH]c(=O)c(C#N)cc1C(=O)N1CCCC2(CCC(=O)N(C3CC3)C2)C1", "note": "(configuration not stated)", "Potency": "active: 28.2 µM"}
{"smiles": "CC(=O)N1CCN(c2cc(-c3noc([C@@H]4CCCN4C4CCC4)n3)ccn2)CC1", "Potency": "inconclusive: 35.5 µM [inhibitor, single point]"}
{"smiles": "O=C1C=CC(=CN(O)c2ccccc2)C=C1", "Potency": "inconclusive: 17.8 µM [inhibitor, single point]"}
{"smiles": "Cn1cccc1CN1CCC(N2Cc3ccccc3C2=O)CC1", "Potency": "inconclusive: 56.2 µM [inhibitor, partial curve]"}
{"smiles": "COCCOC1CCN(C(=O)Cc2c(C)noc2C)CC1", "activity change, negative = inhibition": "inactive: -6.17%"}
{"smiles": "CNC(=O)c1cccc(-c2cnc(Nc3cccc(C(F)(F)F)c3)c3c2CCO3)c1", "Potency": "active: 12.6 µM"}
{"smiles": "Cc1ccc2c(c1)cc(C(=O)NCCc1ccccc1)n2C", "activity change, negative = inhibition": "inactive: -9.5%"}
{"smiles": "COc1ccc(S(=O)(=O)N2CCCC(C(=O)NCCN3CCOCC3)C2)cc1C", "note": "(configuration not stated)", "activity change, negative = inhibition": "inactive: 21.9%"}
{"smiles": "CCOC(=O)C1CCN(c2nc3c(S(=O)(=O)c4ccccc4)nnn3c3ccsc23)CC1", "Potency": "inconclusive: 35.5 µM [inhibitor, partial curve, poor fit]"}
{"smiles": "COc1ccccc1C1c2c(-c3ccc(C)cc3)n[nH]c(=O)c2Nc2nnnn21", "note": "(configuration not stated)", "Potency": "inconclusive: 20 µM [inhibitor, partial curve, poor fit]"}
{"smiles": "COc1ccc(C2c3c(n(C)c4ccccc34)C(=O)N2CC(=O)Nc2ccc(C)c(Cl)c2)cc1", "note": "(configuration not stated)", "Potency": "inconclusive: 15.8 µM [inhibitor, partial curve, poor fit]"}
{"smiles": "CC(=O)NC1(C)CCN(Cc2ccccc2-c2ccc3c(ccn3C)c2)C1", "note": "(configuration not stated)", "Potency": "active: 35.5 µM"}
{"smiles": "CC(=O)c1ccccc1NC(=O)CCc1ncc(-c2c(F)cccc2F)o1", "activity change, negative = inhibition": "inactive: -23.2%"}
{"smiles": "CCc1ccccc1N(C(=O)c1snc(C(N)=O)c1N)C(C(=O)NCC1CCCO1)c1ccc(C)o1", "note": "(configuration not stated)", "Potency": "inconclusive: 22.4 µM [inhibitor, partial curve, poor fit]"}
{"smiles": "O=C(O)C1CCc2nnc(C3CCN([S+](=O)([O-])C4CCCC4)CC3)n21", "note": "(configuration not stated)", "Potency": "inconclusive: 79.4 µM [inhibitor, partial curve]"}
{"smiles": "Cc1ccc(NC(=O)Cn2cc(S(=O)(=O)c3ccc(C)cc3)c(=O)c3cc4c(cc32)OCO4)cc1", "Potency": "inconclusive: 28.2 µM [inhibitor, partial curve, poor fit]"}
{"smiles": "CC1=C/C(=N\\Nc2ccccc2Cl)CC1", "Potency": "inconclusive: 39.8 µM [inhibitor, single point]"}
{"smiles": "COc1ccc(-c2nc3cc(NC(=O)C(C)C)ccc3o2)cc1OC", "Potency": "inconclusive: 10 µM [inhibitor, partial curve, poor fit]"}
{"smiles": "CCN1c2cc(C(=O)Nc3ccc(F)cc3)ccc2C(=O)N2CCCCCC21", "note": "(configuration not stated)", "Potency": "inconclusive: 25.1 µM [inhibitor, partial curve, poor fit]"}
